Experimental data from the supplement of paper PMC11876631.
Changes are numbered by the printed parent chain. In names and notes the source's numbering stands. ± gives the standard deviation of the averaged measurements. Laboratory Escherichia coli strains with one amino-acid change in an essential protein, pooled on minimal glucose agar with carbenicillin or gentamicin at twice the control MIC (plus kanamycin and chloramphenicol for the plasmids), 48 h. Fold change of barcode share against drug-free plates; higher = less susceptible. Active = above 20 in both replicates (the paper's putatively resistant). '<' = one read or none on drug, '>' = one read or none on a drug-free plate. Shares are relative, so most strains fall below 1 when a few take over. Listed are strains with at least 15 reads on both drug-free plates, and hits; most hits rest on fewer reference reads. Replicate rank correlation about 0.5. Edits are read from barcodes.

B1: carA L216W (protein)
chain: MIKSALLVLEDGTQFHGRAIGATGSAVGEVVFNTSMTGYQEILTDPSYSRQIVTLTYPHIGNVGTNDADEESSQVHAQGLVIRDLPLIASNFRNTEDLSSYLKRHNIVAIADIDTRKLTRLLREKGAQNGCIIAGDNPDAALALEKARAFPGLNGMDLAKEVTTAEAYSWTQGSWTLTGGLPEAKKEDELPFHVVAYDFGAKRNILRMLVDRGCRWTIVPAQTSAEDVLKMNPDGIFLSNGPGDPAPCDYAITAIQKFLETDIPVFGICLGHQLLALASGAKTVKMKFGHHGGNHPVKDVEKNVVMITAQNHGFAVDEATLPANLRVTHKSLFDGTLQGIHRTDKPAFSFQGHPEASPGPHDAAPLFDHFIELIEQYRKTAK
B2: carA L216Q (protein)
chain: B1 chain with W216Q
B3: carA L216D (protein)
chain: B1 chain with W216D
B4: carA L216P (protein)
chain: B1 chain with W216P
B5: tsaD V131D (protein)
chain: MRVLGIETSCDETGIAIYDDEKGLLANQLYSQVKLHADYGGVVPELASRDHVRKTVPLIQAALKESGLTAKDIDAVAYTAGPGLVGALLVGATVGRSLAFAWDVPAIPVHHMEGHLLAPMLEDNPPEFPFDALLVSGGHTQLISVTGIGQYELLGESIDDAAGEAFDKTAKLLGLDYPGGPLLSKMAAQGTAGRFVFPRPMTDRPGLDFSFSGLKTFAANTIRDNGTDDQTRADIARAFEDAVVDTLMIKCKRALDQTGFKRLVMAGGVSANRTLRAKLAEMMKKRRGEVFYARPEFCTDNGAMIAYAGMVRFKAGATADLGVSVRPRWPLAELPAA
B6: tsaD L133A (protein)
chain: B5 chain with D131V, L133A
B7: tsaD L133Q (protein)
chain: B5 chain with D131V, L133Q

biological target: Escherichia coli (laboratory strain); assay: barcode share on antibiotic plates over drug-free plates; higher = less susceptible; details: antibiotic: carbenicillin; 2× MIC (3.1 µg/mL)
Procedure: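 A pool of E. coli strains, each edited to carry one amino-acid change in an essential protein, was grown for 48 h on minimal glucose agar with or without antibiotic; strain barcodes were sequenced; mean of two replicates.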

Protein	fold change of barcode share
B1	0.372 ± 0.2
B2	0.322 ± 0.026
B3	0.524 ± 0.38
B4	0.408 ± 0.045
B5	0.267 ± 0.19
B6	0.192 ± 0.021
B7	0.217 ± 0.15

same assay, conditions: antibiotic: gentamicin; 2× MIC (MIC 0.45 µg/mL)

Protein	fold change of barcode share
B1	0.0046 ± 0.00039
B2	0.00278 ± 0.001
B3	0.036 ± 0.023
B4	0.0095 ± 0.0018
B5	< 0.0156
B6	< 0.0172
B7	< 0.0174
